Some of the results follow. The list includes weakly bound sequences.
What follows are sequences tested against MaxL homodimer (UniProt P61244) (assay: universal protein-binding microarray (PBM)). Settings: PBS-based mixture, 10 nM His-tagged protein dimer, 2% milk, 200 ng/uL BSA, 50 ng/uL salmon testes DNA, 0.02% TX-100; detection with Alexa 488 anti-His …; high values mean tight binding; most listed sequences are background and not binding sites; double strand, one strand shown.
Chain of UniProt P61244 (P61244 whole entry): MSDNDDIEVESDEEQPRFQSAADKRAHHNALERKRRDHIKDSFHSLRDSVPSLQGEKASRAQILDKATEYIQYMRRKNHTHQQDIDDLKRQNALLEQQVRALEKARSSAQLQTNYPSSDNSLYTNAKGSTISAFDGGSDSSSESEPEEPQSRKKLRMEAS

Sequence | binding signal (normalized occupancy)
CCGACTTA | 0.0735
ATTTCAGC | 0.0717
ATTTTCCG | 0.0693
GCTTCTCA | 0.0754
AAGTATCA | 0.0801
CAATGCGA | 0.0774
ATCATAAA | 0.0777
AGAACGGC | 0.0679
ATAATGAC | 0.0804
CATAATCG | 0.0831
GACGTTGA | 0.0764
AATTGTCA | 0.0762
AAAATCTG | 0.0747
GACACTGC | 0.0711
CAAGGCCC | 0.0714
CCACGAGA | 0.1
GAGGCAGC | 0.0729
AATTACAT | 0.0715
GGACTCTA | 0.0778
GGAAGGTA | 0.0851
CGGCGTTA | 0.0725
AGCGTAGC | 0.0653
ACGGGACT | 0.0695
AGTAAAAC | 0.073
ATATAGAG | 0.0887

Sequence | binding signal (normalized occupancy)
ACGAGATA | 0.0815
CTACGGTC | 0.0697
CGGTCAGA | 0.0721
GGTCCAGA | 0.0759
GCCCTTTA | 0.0709
GACCAGCC | 0.0695
CTACGATA | 0.0797
GAAGCTGC | 0.066
ACGCCACT | 0.0784
ATTCGACC | 0.0704
CTGAAGCC | 0.0704
CAGGGGAA | 0.0739
GAGGTAAA | 0.0706
GTAAAGTA | 0.0801
TCAATGCA | 0.0838
CAGCGCGC | 0.0795
CATACAGG | 0.0807
GCACCATA | 0.0825
GATCGACC | 0.0678
AGGTTGAT | 0.0814
CGTCCGCA | 0.0777
GACGAGTA | 0.0683
CACCGTCG | 0.0721
AGGCACGC | 0.0914
GAGCCTGA | 0.0681

Sequence | binding signal (normalized occupancy)
CAGGCTAC | 0.0751
CGGGGCAG | 0.0705
ACATTTCA | 0.0787
CACCGTAA | 0.0762
AACAGGGA | 0.0709
ATGGTTTA | 0.0814
CGCTTTTC | 0.0678
CGCCTGCA | 0.0753
CCTTCCAA | 0.073
CCTAAACG | 0.0698
GATATAAC | 0.08
GGTATTGA | 0.0764
CCAGAAGC | 0.07
GGATAGCC | 0.0768
GATGGGGC | 0.0757
GGAGGCCC | 0.0652
ACGGTAGG | 0.0711
CTAGAGAG | 0.0688
CAGCACGA | 0.0909
AAGCATCG | 0.07
CACAGAAG | 0.0695
GACGGTAC | 0.0707
CATTGAAG | 0.0779
GGAGTACA | 0.0797
GCCCCAAC | 0.0763

Sequence | binding signal (normalized occupancy)
AGATTCAG | 0.0696
CCGTCTGC | 0.0693
AATAGCAC | 0.0801
AGAGTTTG | 0.073
GACTGGCA | 0.071
TAGACCTA | 0.0731
AAGCCATG | 0.0909
ACCAGCAA | 0.0755
CTGCTAGC | 0.0674
ATGGTTCG | 0.0737
GGACCCGA | 0.0667
GGAGGGTA | 0.0805
AACACGTT | 0.128
CATATGAG | 0.0887
GCACCAAA | 0.0753
CTTGGCTA | 0.0706
AAGATAAC | 0.079
AACTATCG | 0.0759
CAACTCTG | 0.0676
CGCGATGA | 0.0718
CGCAAGAC | 0.0714
ATTAGAGA | 0.0726
ACTCGCTC | 0.0679
AAAATACG | 0.0787
GACTATGC | 0.083

Sequence | binding signal (normalized occupancy)
ACCGTTAA | 0.0779
GTGAAAAC | 0.0723
TCCAGGGA | 0.0713
CGCCAGGA | 0.0676
CACCAGAC | 0.0811
CTACCTCA | 0.0778
AAGACCGT | 0.0755
TTCTGCAA | 0.0726
AGCGACAG | 0.0777
ATTCTGTA | 0.0764
CCCCTAGC | 0.0728
AAACGTAA | 0.0743
CGAGCACG | 0.0846
CCTGTGTA | 0.0852
CCCGAAAC | 0.0747
ACCCGATG | 0.0757
AGGGATAC | 0.0755
AGATTTGG | 0.0791
AGTTCTCG | 0.074
CCGTTGCG | 0.0657
TAGCGTGA | 0.0905
GGGTTACA | 0.0762
ATGTGCCC | 0.0916
CAAGGCGA | 0.0744
TAATGTCA | 0.0894

Sequence | binding signal (normalized occupancy)
GAACGTAC | 0.0793
CTTTTTTA | 0.0743
ACCCGCTG | 0.0761
CCGTCGAC | 0.0721
CATTATCA | 0.0878
CGTTAGGC | 0.0739
GTTGAGAA | 0.076
GGTAACGA | 0.0778
TATTCCAA | 0.0748
ATCGTCCG | 0.0709
CTGGTTAC | 0.0749
CACACCTC | 0.0869
TACGTAAA | 0.0797
AGATAAGG | 0.075
CCACGTCG | 0.086
CAGATCTG | 0.0738
ACCCGAAT | 0.0777
CCTTTTCA | 0.0767
TCACGTAA | 0.086
AACAAGCG | 0.0731
AAAATTGC | 0.0741
CGTTTCAA | 0.0726
ATCCAGTG | 0.0764
CCGGTACC | 0.071
CAAGTGTC | 0.0772

Sequence | binding signal (normalized occupancy)
AGTAAACA | 0.073
CCTCTTAA | 0.0711
TTCACGAA | 0.0703
ACCCCAAA | 0.0761
CGCTTCCC | 0.0822
ATATGCGC | 0.085
AGGCAGCG | 0.0692
ACATACAA | 0.083
CCCTAATA | 0.0744
AAAGTCCT | 0.0686
CGCATCAA | 0.0816
AATCTCCA | 0.0749
AAGCAGAA | 0.0742
AATGGCGC | 0.0736
AATTCCAG | 0.0737
TATGCTAA | 0.0798
GCCATGAC | 0.0739
ATGCGAAA | 0.0802
ACGGTCCA | 0.0703
AAGACGTG | 0.0775
CAGTCACC | 0.0819
AAGGTTCA | 0.0746

— article PMC4242493
